Measurements taken from the supplement of paper PMC10126150.
Values marked as one replicate rest on one cluster of the flow cell; about a third of the high ones do not repeat.

Test system: ATP
Assay: switch fluorescence ratio, 500 uM ATP over buffer (Cy3 cluster intensity, sum of 5 cycles each) (fold (ratio)); higher = stronger signal-on switching upon ATP binding; sequences stand for … in TCGTCGGCAGCGTCAGATGTGTATAAGAGACAGTTTTTTTTTTTTTTTTTTTTTTTTT…TC
Conditions: aptamer strand: ATP DNA aptamer (quencher-CACCTGGGGGAGTATTGCGGAGGAAGG + anchor), 100 nM annealed; ATP concentration: 500 uM; one replicate
Procedure, shortened: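 The quencher-labelled ATP aptamer, at 100 nM, was annealed to Cy3-labelled switching-strand clusters on a modified Illumina MiSeq flow-cell. The clusters were imaged in selection buffer, then after 15 min with 500 uM ATP at 22 °C, and this buffer/ATP cycle ran five times with NaOH stripping and re-annealing between runs. Per-cluster fluorescence ratios, summed target-cycle over summed buffer-cycle Cy3 intensity, were averaged per switch-domain sequence. Clusters outside 100-1000 RFU were excluded.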
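Note: ATP exposure 15 min at 22 °C before imaging.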

Sequence	switch fluorescence ratio
ATAGATAATT	0.987
AATTAGGTAG	0.982
TATCTGGGAA	1.01
ATTTGGCCTT	1.03
TGCGGATTAA	0.972
TCTGCACCCG	1.07
TTCCTACAGC	1.61
ACCTGTTAAT	1.06
GGCTATTTGT	0.958
GGTGTTAATC	0.971
GTCAGATCGG	0.983
TTACTAATGC	1.03
GCCAACGTGC	1.09
GGTCTACGGG	1
GATGAGAGCG	1.06
TGTCGTGTAT	0.987
AAGGGTTGGA	0.962
CACGACGTAT	1.13
GCTGTGCCGT	1.06
TTTACAAACA	1.08
AGGAGACAG	1.01
CAATTCTCAA	1.01
TCTAGAAATG	0.986
CTGTGCATTC	4.8
GGTACCGGCC	1.13

Sequence	switch fluorescence ratio
GCTCCTTCAT	1.13
AGGAATTAG	1.01
TGTCGGGGG	0.995
CTGTCCGGTC	1.02
CGAACAAGCG	1.02
CATGGCGCTG	0.97
GTCTTCTAGA	1.04
TTCCTCCAGG	1.4
GTAGTATCCA	0.962
GAGACTTTCG	1.11
GGAGTGGGA	0.976
GATTCGAAGC	0.911
TAGAGCTATC	1.05
ATCCCGACCG	1.11
ATATACTAAA	1.05
CCCACCCCCA	1.04
ACGTGGTGGG	0.984
GGGTATCTCA	0.986
TGAGACGAGT	1.02
TAAATATGAG	1.04
ATTCGGTGCC	1
CAGCTAGAAT	0.979
TGGAATTCAG	1.02
TTTGGTGACC	1.36
CAGGTGTATT	1.53

Sequence	switch fluorescence ratio
TGATTGACGC	0.995
CAAAAATTAA	0.993
AGGGAATGAC	1.32
CGTAAAGGCG	0.944
ATGTGCAGGT	1.04
AGGAACAGGG	1.02
TACTCGGAGG	1.02
TTGCGACTAT	1.01
ATTCGCTTG	0.994
TAAGAGCGTG	0.993
GCCGAGGCGG	1.01
TACGCCCGCC	1.27
GATCACTTGG	1.03
TTTGAAAAT	1.36
CGTCTTCCAA	1.1
GCTTGGAACG	1.01
GCCTTACATA	1.07
TTGTCGTTGT	1.01
CCATGACCCT	1.04
CCAAATGCAG	1.1
CACTGATTAA	0.966
ATTCGATCTT	1.01
TTGCCCCCCG	0.996
GCGACTGGGT	0.962
TTCTTTCGTA	1.02

Sequence	switch fluorescence ratio
GACACCGATT	1.07
ATTGGAGCTC	0.991
GCCAACCCAT	0.97
AGAGGGCGCA	0.987
GGCGGCCGTC	0.977
CGGTCATAAC	1.08
CACGTTAGGC	1.06
ATGAACGCG	0.986
CTAGTTGTGT	0.936
TACAGGGATA	0.99
TTGGGAGACC	0.997
ATCACAGTTC	1.06
GGACTCGTTA	0.935
GCGAGGCACG	1.1
AGTTACCGTT	1.02
AAGAATCGGT	1.02
GAGGGGATGC	1.09
TCGATGGTTC	0.96
CCATCTGTCG	1.03
ATGATCGAAA	0.982
GGAAAGGCCT	0.984
AAGTTGGAAC	0.945
ATTTTACTAT	1.01
AGCCGCTACC	2.9
AGCGCCCTTA	0.988

Sequence	switch fluorescence ratio
GGTAGGCATG	1
CGTTGGGGCT	1.15
GGAAGTAATT	0.976
CGGCCAGCCG	1.04
AGGATGTATG	0.946
GATGGCCATA	1.01
AACTATTCTG	0.996
GTGCTAAGTA	0.981
CTTGCTCAGT	1.07
CAGACATGAC	1.05
CTAGTGTGGG	0.996
GCATTCACTG	1.04
CGTCCGAAAC	2.8
GCATACAGAG	1.04
TGCAGCCTGG	1.03
CTGACCCCCC	1.82
CGCACTAAGG	1.14
CGCGCTCCCA	3.79
GGTATGACGG	0.973
TTGGCCTCGT	0.987
TTACGCTGTT	1.01
GGTCGGTGTT	1.02
ACAGCTTTA	0.972
GGCCTGCTGT	0.982
GGGAGTGCTC	0.978

Sequence	switch fluorescence ratio
AGCACTAGA	1.07
TGGGATGATA	0.993
AGTGCAGGGC	1.1
TACCTGGCTG	1.03
GAGATGTCTC	0.942
TTGGTCCAAC	0.978
TCTCTAGTAG	1.01
AGAATTCCCC	0.994
AGGTTTCGTA	0.983
CGGAGTGACC	1.19
ATTTTGCCAA	1.01
GACTAGAGAG	0.987
GCGGTCTTAA	0.974
TGGTGGATCG	0.933
CTGTCTAGTT	0.997
CCGAGAGCGT	2.77
TGGTTAGACG	1.04
GTAAAGTGGT	0.983
TACCTGTGCT	1.01
TTTAGTATG	1.04
GTCTACGGGA	1.14
GGGTTGGGA	1.05
GATTACCCAC	1.59
CGTGTGAATG	0.918
GCAGATTCCA	0.989

Sequence	switch fluorescence ratio
CAATCGCCCG	0.97
TTTCTACGTG	1
TTACTCCCTA	1.52
CAATAGACTT	0.976
GGTAGCAAAT	0.984
TAGGAGCT	0.98
CGTGAGGAAC	0.994
AGCGATATTG	1.05
TCCTAAGGGT	1.02
TACACCTCAC	1.31
TTCACGAGTA	1.03
CTTTCTGTGG	0.991
TCAGAGCTAA	3.3
AGGAGAGCCG	1.04
CCATTTTCTT	0.964
GAATCGCTGG	0.996
CATTTACGGG	1
TGGCTCACTC	1.03
TATGCTTCAG	0.969
TAACTAATCT	0.989
GCGCCTAACT	1.04
GATGCAGTCC	1.03
TATGATGTAT	1.01
AAGTGAAG	1.02
TTATGGAGGT	0.948

Sequence	switch fluorescence ratio
CCCGGCTGCC	1.04
GAGCTAGCTG	1.03
TGGAATAGCT	0.944
GCAACGGCCG	0.997
GCTTCCGTTT	1.04
GCCCTTTTGC	1
TTCACACGAT	1
CATGTACCTT	1.16
GTTTGTAATC	1.02
TTGCTGACGG	1.03
AGTGATGGA	1.01
CGTTAGTAGT	1
TCCTGACGCT	1.11
GCAGAGGGAG	0.989
AAAGATACGT	1.06
CGTTTTGGG	0.977
TCGGCAACTT	1.03
CGTAGGATAG	1.05
ACGGCTGATA	0.976
GCAGTACGC	1.49
CGAGTAACT	1.02
ACATATCTCG	0.994
AGATCTTAGA	0.95
ACCCTGCAGT	1.17
AAGCTAGGAT	0.982
